Measured values taken from PubChem BioAssay (NCI).
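48-hour exposure; five concentrations; linearly interpolated endpoints. Abbreviation: GI50, concentration required for 50% inhibition of growth. The concentration for full growth arrest is given as TGI.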

system: NCI-H322M lung; assay: DTP human tumour cell line panel, 48 h

| SMILES | TGI [µM] | GI50 [µM] |
| --- | --- | --- |
| C[C@]12C(=O)OC[C@H](c3ccccc3)N1C(=O)N(Cc1ccccc1)[C@@H]2CO | > 100 | – |
| CCOC(=O)c1sc2nc(=S)[nH]c(NC(N)=S)c2c1C | 51.5 | 19.9 |
| Cc1ccc2[nH]c3c(c2c1)C1CCC(C(C)(C)C)CC1C1C(=O)N(c2ccc(Oc4ccccc4)cc2)C(=O)C31 (stereo not given) | > 100 | – |
| Nc1nc(N)c2cc(S(=O)(=O)c3cccc(C(F)(F)F)c3)ccc2n1 | > 100 | 5.42 |
| CN(N=O)C(=O)NC(CCCCNC(=O)OCc1ccccc1)C(=O)OCc1ccccc1 (stereo not given) | > 100 | – |
| Fc1ccc(/C=C2\COCC3=C2NC(=S)NC3c2ccc(F)cc2)cc1 (stereo not given) | 59.5 | – |
| c1ccc2[nH]c(-c3ccc(Nc4nc(N5CCCC5)nc5[nH]ncc45)cc3)nc2c1 | 8.79 | 2.12 |
| Cc1cc2c(cc1Cl)SSc1cc(Cl)c(C)cc1S(=O)(=O)Nc1nc(N)nn1C(O)n1nc(N)nc1NS2(=O)=O | > 10 | – |
| COc1ccc(-c2nn3ncccc3c2-c2ccnc(Nc3ccc(F)c(F)c3)n2)cc1 | > 25 | > 16 |
| CN(C)CCNc1c(O)c2c(c(O)c1Cl)C(=O)C=CC2=O | 4.58 | – |
| COC(=O)C12C(=O)CC3CCC1C32C(=O)OC (stereo not given) | > 100 | – |
| CC1=C[C@H](C[C@]2(C)c3c(c4c(C)cccc4oc3=O)O[C@@H]2C)OC1=O | > 100 | – |
| CCOC(=O)Cn1nnc2ccc(Nc3nc4ccccc4nc3C(=O)OCC)cc21 | > 100 | – |
| C=C1C(=O)O[C@@H]2C[C@@]3(C)CCC[C@H](C)C3=C[C@H]12 (tested in a mixture with another compound) | 21.3 | – |
| O=C1CC(Nc2ccccc2)c2c(Cl)sc(Cl)c21 (stereo not given) | 15.9 | – |
| Oc1ccc(CCNc2nc3ccccc3c3[nH]c4ccccc4c23)cc1O | 15.1 | 4.03 |
| O=c1[nH]c(=O)n(Cc2ccc(C34CC5CC(CC(C5)C3)C4)c(O)c2)cc1F | 34 | 17.9 |
| O=C1C(NS(=O)(=O)c2ccccc2)=C(n2ccnc2)C(=O)c2ccccc21 | > 100 | – |
| COC(=O)C12CCCN1CCC2 | > 100 | – |
